Whole data set: some 33,000 sequences, median “E-score (dimensionless, -0.5 to 0.5)” near -0.058, cut for the highest 2% near 0.35. The list shows a part of the results.
Tested on: MvaT
Assay: PBM 8-mer E-score (mean of HK and ME arrays) (E-score (dimensionless, -0.5 to 0.5)); higher = stronger relative binding preference; most listed sequences are background and not binding sites
In short: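 Full-length P. aeruginosa MvaT, with glutathione S-transferase fused to its N-terminus (cloned into pTH6838 by isothermal assembly), was tested by protein binding microarray using a previously described protocol. Two universal double-stranded 60-mer arrays (ME and HK) were used, each with a constant 25-mer primer region and a variable 35-mer region covering all 8-mers. The rank-based 8-mer E-score (-0.5 to 0.5) is the mean of the two arrays, parsed with a custom Python script.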

Sequence | PBM 8-mer E-score
AGTCAACA | 0.067
AAGTCGTA | 0.0511
ATATATCG | 0.442
GGGGGCAA | -0.259
ACTCCCTG | -0.187
CAGACCTC | -0.201
CCGAGTAC | 0.0211
CCTATAAC | 0.186
TACGGCGA | -0.204
GTACAATA | 0.309
AGAGCATC | -0.137
GGCGGCGA | -0.157
CGCTTCAG | -0.164
CGAGGTAG | -0.121
AACCTGAG | -0.107
CTCAACGC | -0.248
AAATGACG | 0.166
GCACCTCA | -0.202
CATCTTAA | 0.134
AAGGGAGG | -0.339
AAGGCGGA | -0.167
CGTCGACG | -0.164
GTAGTTGA | 0.153
ACAACCCA | -0.0175
AGTGCATC | -0.11

Sequence | PBM 8-mer E-score
ATGATGAG | 0.0335
CAGCACGC | -0.301
CGCACCCA | -0.0985
GTCTACTA | 0.0723
ACAACGGC | -0.0149
CCAGGATA | -0.0314
CATGCGGA | -0.0548
AGTGCACC | -0.0824
ACACACAG | 0.204
ACGTTATA | 0.339
ACGGCGCA | -0.237
CGAAAGAC | -0.0962
GGTGTAAC | 0.0209
ATCCCACA | 0.123
ATTCAGCC | 0.00653
ACGGGGTC | -0.337
CTTTTACA | 0.0261
CATTAGTC | 0.000526
ACCGTTGG | -0.272
ACATGAGG | -0.121
GAATATGA | 0.19
AGGGTCTA | -0.248
GCAGGCCA | -0.293
ATGCACGG | 0.0298
CCCACGGC | -0.248

Sequence | PBM 8-mer E-score
GAAAGAGC | -0.113
CCCAAACG | 0.0684
AAATCGTG | -0.00219
CTGACCTC | -0.26
AGTAGTTG | 0.203
TACCGCGA | 0.0283
GTGAAAGA | 0.0714
CTTGTATC | -0.101
GCCGGACC | -0.206
ATCAGAAG | 0.0934
AGGCAGCG | -0.221
CACCTCAC | -0.202
GTAGGGCA | -0.179
ATCCCTTG | -0.144
CAAGGAAG | -0.202
GAGATACC | -0.0827
GATGTCCA | -0.0647
TGAGTGAA | 0.0309
AGGCGTTG | -0.093
ACACCTCC | -0.0337
GTGGATCA | -0.0325
ATACAATA | 0.372
ACCCTCGC | -0.152
CATGAGAG | -0.157
GCGGATGA | -0.235

Sequence | PBM 8-mer E-score
ACCAATCT | 0.172
CTGATGAC | -0.127
CAGATTCC | -0.157
CGCTAATC | 0.0307
CCGTTAGC | -0.209
AACCTCCC | -0.253
CGGTGATA | 0.0816
GGAATTTA | 0.175
AAGCAACT | 0.0197
CTATCGCC | -0.136
AAAAAACG | 0.145
GATAGAGA | 0.11
ACCGGAAT | 0.103
CAAATGAG | 0.0159
GAACGGAA | -0.124
AGGCCGCG | -0.184
CAAACTCG | 0.0117
AGTATGAG | 0.0253
CGTTAGAC | -0.175
ATTCGCAC | 0.113
AATGGTTG | -0.0297
AGCCCGTC | -0.156
AAAACGAA | 0.197
CGGATGCC | -0.285
AATATTGG | 0.278

Sequence | PBM 8-mer E-score
CACATATA | 0.405
TGAAGTCA | -0.0874
CATTGATA | 0.146
GCCACCCC | -0.362
ACAGACGT | -0.13
CATGAACA | 0.00134
AATTCTCC | 0.0595
CCCTGGAC | -0.282
GCCTATTA | 0.0822
CACGACAG | -0.183
AATAACAG | 0.273
CAACAGGA | 0.0126
ACCGCACT | 0.0223
CCTATTTA | 0.212
AGGAACCC | -0.169
ACCTCGCT | -0.247
ATACCCGC | -0.00464
CTACGGGA | -0.153
AGTCGAAG | -0.0804
GTTCGAAC | 0.153
CTTAAGGA | -0.00982
ATGCTCTC | -0.108
ACGTGGCG | -0.144
GGTGCACA | 0.00341
ATCGAAAG | 0.0954

Sequence | PBM 8-mer E-score
AAACATTT | 0.237
AAGACAGA | 0.0184
TATATAGA | 0.434
AGGTGCGG | -0.222
CATAGTGC | -0.0608
GGTTTGAA | 0.062
CGCGGAGC | -0.246
ATATTCCG | 0.287
AAGTTAGC | 0.22
CAACGTAG | 0.0178
ATACGACG | 0.0517
GCAGACGA | -0.216
CCGTTAGA | -0.0162
TGTGCACA | -0.0015
CCCGTTGC | -0.103
GCTGCGAC | -0.24
GCAAGTTA | 0.34
GCGGCACC | -0.219
CGCTCTTA | 0.0777
CTGACCCA | -0.255
ACGACAAT | 0.148
AAGGTGGT | -0.0687
ACCACTAA | 0.135
GCATGATA | 0.0908
CCAGTCAG | -0.0925

Sequence | PBM 8-mer E-score
CGAACAAG | -0.0762
ATTAGAGA | 0.0776
AGTGTGTC | -0.0092
CGCAAGGA | -0.231
GGGCTATA | -0.122
ACACCCGT | -0.138
GTCCGAAA | -0.0129
CGGCTTAC | -0.203
AAGGAAAT | -0.0477
ATCTGTCC | -0.0306
AAGAACAG | -0.0254
AGTTGTAC | 0.163
CGAGAGTC | -0.234
CGCAGCAG | -0.21
GTGCCGAA | -0.111
AGGCAGGA | -0.151
GACAGCAC | -0.193
GACAGAAA | -0.102
AGCGGGTC | -0.207
CAAAGAAG | 0.0159
CCATGGAG | -0.231
CCTAGCCA | -0.128
ATATGGGA | 0.163
AAGAGAAC | -0.119
AGGAGGGG | -0.319

Sequence | PBM 8-mer E-score
AACTCGCA | 0.121
GCACATTA | 0.19
AAATTGAA | 0.339
CTCACGAA | -0.0954
TAGAGATA | 0.0793
CCGACGTC | -0.152
ACTGATAA | 0.209
CTATTCTC | -0.0677
CTGGGCAC | -0.222
CATACTAA | 0.198
ACTCCTCT | 0.00157
TCTGCTAA | 0.0359
ATTAATCC | 0.332
CCCACGCA | -0.318
ACGTGGTC | -0.214
AGTTAATG | 0.271
ACTGGATA | 0.12
CTTGCTAC | -0.0295
ATGTAGGG | -0.0431
ACACTTAA | 0.294
AACCCCGT | -0.228
GCCTAGAC | -0.376
CAGTATAA | 0.267
AAACAGTC | 0.106
AGCGAATC | -0.165

Sequence | PBM 8-mer E-score
GATACTCC | 0.0038
ACATTGCC | 0.0616
CGGGAGAG | -0.265
TCGTTTCA | -0.055
CGAGTCGA | -0.198
GATACCAA | -0.0222
CTTGACGA | -0.0349
AAAGTATG | 0.216
ACGTGGTA | -0.0806
CAAAAAAG | 0.158
CTCGCAAC | -0.0813
GCCTACGC | -0.343
AATAATAG | 0.402
CATCGCGC | -0.106
CCCTCCAA | -0.365
ACTATCTG | 0.0744
AAGTGCAT | 0.059
ACCAGAAA | 0.0617
AGGCTCAT | -0.147
ACCTGTAA | 0.0435
CCCAGTAA | 0.052
TCGAAGAA | 0.0109
ACAGAAAT | 0.154
ACATCGAG | 0.0417
TTGTAAAA | 0.277

Sequence | PBM 8-mer E-score
GCGTTAAC | 0.1
CTTTATGC | -0.0172
AAATTGGC | 0.0942
AACGGCTG | -0.166
AGCGCGAG | -0.185
AAGCCACG | -0.171
CCATACAC | 0.0192
CGAGATAG | -0.0359
TAATCCGA | 0.0667
CTTAAAAG | 0.166
ACAAGATG | -0.0826
ATTCGCAG | 0.0329
ACAAGGAG | -0.284
AAGTTAGA | 0.302
ACCAAAGC | -0.174
AGGGTGGG | -0.118
ACGCGTGC | -0.0474
AGAGCGAT | -0.176
ATCTCAGG | -0.146
AGCCAACA | 0.0763
AGCCGGCA | -0.131
CATGTTAG | 0.177
ATGATTTG | 0.182
CCTACAAC | -0.0135
GCACGTCA | -0.126

Sequence | PBM 8-mer E-score
ATTTGTAG | 0.185
ATCACGTA | -0.0609
GCCACACC | -0.0459
TGGTACAA | 0.132
ACTAATCC | 0.0544
CGGGAGGC | -0.228
ATTGGATC | -0.0745
AACCGCGG | -0.119
CTGAGTTA | 0.199
TATTATGA | 0.311
GCCTGCCC | -0.211
GAGGGCCC | -0.271
AAGCGCCT | -0.184
CGAATTTA | 0.157
GCAATGTA | 0.134
ACCCCTGC | -0.216
TAGGCATA | 0.0695
GCATTGGC | -0.247
CACTTTGA | -0.0386
AACTCACT | 0.0925
GGCCAAAC | -0.055
CATTGGCA | -0.186
AGTCTTGG | -0.0711
CGGCTAGC | -0.166
TCCCCGCA | -0.158

Sequence | PBM 8-mer E-score
AAGGGGAT | -0.144
ATATTCGC | 0.249
GTCCGAGA | -0.233
CACATCGA | 0.0443
CAAAGTTG | 0.215
AAGAACAT | 0.139
CCCCCTAG | -0.314
ACGCGCAG | -0.197
GAAATCGC | 0.00463
AACTGTTC | 0.0192
AGCCCCAA | -0.198
CCACACTA | 0.108
CCTATGTC | 0.00443
AATCCAGC | 0.0434
GATACCCC | -0.235
ACTCATCT | -0.0202
CTGGAGAA | -0.0374
CAATTCGG | -0.0541
CAGAAAAG | 0.144
AAATCTCC | -0.144
AAGTCGAT | -0.0445
CTGAATAC | -0.0272
TCATGCAA | -0.0609
AGCGATAC | 0.0789
CAGATAGG | -0.238

Sequence | PBM 8-mer E-score
GTGATCAA | -0.117
AGTGCGCG | -0.0565
CCGCACGA | -0.13
ATAGCACG | 0.113
CTAATGAG | -0.253
ATGTTACC | 0.0796
AAAACGTT | 0.199
ACCGGATA | 0.0103
CAATAGTC | 0.146
CCCATGAC | -0.193
AAGGTATT | 0.152
AAGCGGTG | -0.19
CAAATAAA | 0.301
ACGCGCCT | -0.169
GTGCGGGA | -0.138
GTGGACTA | -0.00662
GGCAGGCA | -0.254
CCTCAAGC | -0.176
CGGTAACA | 0.0755
CCTAGATA | 0.0301
GCGAGCCC | -0.282
AATAGTCG | 0.218
GCCCGTGA | -0.215
GCCTAGCC | -0.187
CGTGACCA | -0.166

Sequence | PBM 8-mer E-score
CTGTAGGA | -0.18
AAGAGGCG | -0.192
AGAGCCAC | -0.08
AAGCACTT | 0.0782
ACACAACT | 0.112
AGCATTGA | -0.0767
AGGGAGCA | -0.225
TTCGTAAA | 0.0933
AGCTCATA | 0.00546
GACATCGA | 0.00909
CGCACCGC | -0.267
ATCGAGGA | -0.174
ATGTATTA | 0.399
GGCCCGAC | -0.151
AACTCTTA | 0.21
TACTCGCA | -0.0664
AAGCTACC | -0.0511
ACACTCAA | 0.0982
GTTACGGA | -0.0357
